The values below come from PubChem BioAssay AID1508623 (National Center for Advancing Translational Sciences (NCATS), 2021).

SMILES strings stand for the structures. Out of some 48,000 compounds screened, about 450 (0.94%) were called active. Not shown: some 19% with an inconclusive outcome. The call rests on the fitted dose curve; in most records, active means well fitted inhibition curve with a large enough effect; inconclusive means small, poorly fitted or top-dose-only effect; inactive means no such curve, though single readings can be large or run the other way. This is one part of the list.

A short description of this assay: Primary qHTS for Identification of Small Molecule Inhibitors of Huntingtin Promoter Activity. Further: nearly all actives have a fitted effect of over 50% in size. To be noted: HEK293 HTT promoter firefly luciferase reporter (activity 0% = vehicle and -100% = no light), 24 h; series mostly up to 57.5 µM; activity change, negative = inhibition: at the top concentration. In a few lines:
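HEK293 cells carrying firefly luciferase reporters were seeded at 2,500 per well in Opti-MEM and cultured for 24 h. They were then treated with compounds at up to 57.5 uM final for 24 h at 37 degrees C before Dual-Glo luminescence readout.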
Background: Quantitative high-throughput screening tests each substance at several concentrations.
As for `Cc1nc(-c2cccc(F)c2)sc1CCNC(=O)c1c(F)cccc1Cl`, the “activity change, negative = inhibition” value is inactive: -36.8%.

`COc1cccc(N2CCN(C(=O)c3cc4c(s3)-c3c(C)cccc3OC4)CC2)c1`: the “activity change, negative = inhibition” value is inactive: -2.41%.

For `CCCCn1c(=NC(=O)C(C)(C)Oc2ccc(Cl)cc2)c(C(=O)OCC)cc2c(=O)n3ccccc3nc21`, the “activity change, negative = inhibition” value is inactive: -8.7%.

As to `COC(=O)Nc1nc2ccc(C(=O)c3ccc(F)cc3)cc2[nH]1`, the “activity change, negative = inhibition” value is inactive: -14.5%.

Turning to `Cc1ccc(OCC(=O)Nc2nonc2-c2ccc(C)c(C)c2)cc1C`, the “activity change, negative = inhibition” value is inactive: -2.06%.

Take `COc1ccccc1C(=O)Nc1cccc(C(=O)OCc2cc(=O)n3nc(C4CC4)sc3n2)c1`: the “activity change, negative = inhibition” value was inactive: -7.45%.

Consider `CC1CCCN(CCCNC(=O)c2ccc3c(c2)N(Cc2cccc(Cl)c2)C(=O)c2ccccc2S3(=O)=O)C1` (stereo not given), for which the “activity change, negative = inhibition” value was inactive: -17.4%.

Regarding `CC(C)Cc1nn2c(=O)cc(COC(=O)CNC(=O)c3ccc(C(C)(C)C)cc3)nc2s1`, the “activity change, negative = inhibition” value was inactive: -7.42%.

`Cc1ccc(C)c(CNC(=O)c2ccc3c(c2)nc2n3CCOC2)c1`: the “activity change, negative = inhibition” value is inactive: -2.04%.

In the case of `COC(=O)c1ccc(C2c3c(oc4ccc(C)cc4c3=O)C(=O)N2Cc2ccc3c(c2)OCO3)cc1` (stereo not given), the “activity change, negative = inhibition” value is inactive: -12.1%.

Take `COc1cccc(CNC(=O)Cn2ccc3cc(S(=O)(=O)N4CCCC4)ccc32)c1OC`: the “activity change, negative = inhibition” value was inactive: -20.6%.

Regarding `CCOC(=O)c1c(Nc2ccc(O)cc2)nnc(-c2ccccc2)c1-c1ccccc1`, the “activity change, negative = inhibition” value was inactive: -17.5%.

With `Cc1ccc(S(=O)(=O)c2nnn3c2nc(NCc2ccc4c(c2)OCO4)c2sccc23)cc1`, the “activity change, negative = inhibition” value is inactive: -13.2%.

`Cc1cc(C)cc(NC(=O)c2ccc3oc(=O)c(S(=O)(=O)c4ccc(F)cc4)cc3c2)c1`: the “activity change, negative = inhibition” value is inactive: -12.5%.

With `COc1ccc(N2CCN(C(=O)C3CCN(S(=O)(=O)c4cccc5nonc45)CC3)CC2)cc1`, the “activity change, negative = inhibition” value is inactive: -27.2%.

As for `O=C(Nc1ccc(-c2nc3ccccc3o2)c(O)c1)c1ccccc1`, the “activity change, negative = inhibition” value was inactive: 62.4%.

For the compound `Cc1ccc(-c2nnc(Nc3ccc(C(N)=O)cc3)c3ccccc23)cc1S(N)(=O)=O`, the “activity change, negative = inhibition” value was inactive: -0.664%.

Take `COc1ccc(NC(=O)Cn2c(=O)c3cccn3c3ccccc32)cc1Cl`: the “activity change, negative = inhibition” value is inactive: -11.6%.

For the compound `CCOC(=O)c1noc2ncnc(Nc3cc(Cl)c(OC)cc3OC)c12`, the “activity change, negative = inhibition” value was inactive: -18.4%.

With `COc1ccc(C)cc1NC(=O)Nc1cc(C(=O)NCc2ccc(C)cc2)ccc1N1CCCC1`, the “activity change, negative = inhibition” value was inactive: -17.9%.

Consider `COc1ccc(-c2nc3sc(CCNC(=O)Cc4ccc(F)cc4)c(C)n3n2)cc1`, for which the “activity change, negative = inhibition” value was inactive: -6.61%.

For the compound `Cc1sc(-c2cc3ccccc3oc2=O)nc1-c1ccc(Cl)c(Cl)c1`, the “activity change, negative = inhibition” value was inactive: -7.62%.

For the compound `CCOc1ccc(CNCc2c(C(=O)O)c(C)n(Cc3ccc(C)cc3)c2C)cc1`, the “activity change, negative = inhibition” value is inactive: -22.4%.

With `Cc1nnc(N2CCCC(C(=O)NCCN(C)C)C2)c2nn(-c3ccccc3)c(C)c12` (stereo not given), the “activity change, negative = inhibition” value was inactive: 5.1%.

Regarding `CCOc1ccccc1OCCCCn1c(-c2ccc(Cl)cc2)nc2ccccc2c1=O`, the “activity change, negative = inhibition” value is inactive: -5.35%.

On to `Cc1ccc(-n2ncc3c(N(C)C)ncnc32)cc1Cl`, for which the “activity change, negative = inhibition” value is inactive: 46.6%.

As for `CCC(Sc1nc(-c2ccccc2)[nH]c1S(=O)(=O)c1ccc(C)cc1)C(=O)O` (stereo not given), the “activity change, negative = inhibition” value is inactive: -13.3%.

Consider `CCN(CC)CCOc1ccc(C(=C(Cl)c2ccccc2)c2ccccc2)cc1`, for which the “activity change, negative = inhibition” value was inactive: -9.33%.

Regarding `CC(C)c1ccc(-c2noc(SCC(=O)N3CCCCC3C)n2)cc1` (stereo not given), the “activity change, negative = inhibition” value is inactive: -12.7%.

Take `Cc1cc(=O)n(Cc2ccc(F)cc2Cl)c2c1c(C)nn2C`: the “activity change, negative = inhibition” value is inactive: -7.93%.

Take `Cc1cccc(-c2nc(CCNC(=O)c3ccc(Br)o3)cs2)c1`: the “activity change, negative = inhibition” value was inactive: -6.51%.

Regarding `Cc1cc(C)cc(OC(=O)c2cc(-c3ccc(Cl)cc3)on2)c1`, the “activity change, negative = inhibition” value was inactive: 4.83%.

Turning to `CCOc1ccc(NC(=O)c2c(NCc3cccnc3)sc3c2CCC(C)C3)cc1` (stereo not given), the “activity change, negative = inhibition” value was inactive: 2.67%.

Regarding `CCN(CC)C(=O)Cn1c(=O)n(-c2ccc(C)c(C)c2)c(=O)c2c(C)c(C(=O)N(CC)CC)sc21`, the “activity change, negative = inhibition” value was inactive: -14.6%.

In the case of `CC(=O)c1sc(NC(=O)c2c(-c3ccccc3)c(-c3ccccc3)nn(C)c2=O)nc1C`, the “activity change, negative = inhibition” value is inactive: 3.3%.

Take `CCN1CCN(C(=O)c2cnn(-c3ccc(F)cc3F)c2C2CCN(C(=O)OC(C)(C)C)CC2)CC1`: the “activity change, negative = inhibition” value was inactive: -4.24%.

As to `COc1ccc(OC)c(NC(=O)c2cnc(Nc3ccc(C)c(Cl)c3)c3ccccc23)c1`, the “activity change, negative = inhibition” value was inactive: -14.4%.

In the case of `COc1cc(Cl)c(NC(=O)CCc2nc3cccnc3n2-c2ccccc2)c(OC)c1`, the “activity change, negative = inhibition” value is inactive: -28.4%.

For `CC(=O)Nc1c(C)nn(-c2ccccc2)c1N1CCC(C(=O)NCc2cccc(Cl)c2)CC1`, the “activity change, negative = inhibition” value is inactive: -17.5%.

Consider `CC1=C(C(=O)Nc2ccc(Cl)cc2)C(c2cccs2)n2nc(SCc3cccc(C)c3)nc2N1` (stereo not given), for which the “activity change, negative = inhibition” value is inactive: -0.34%.

Consider `Cc1ccc(NC(=O)c2cnc(SCC(=O)N3CCCc4ccccc43)n(C)c2=O)cc1`, for which the “activity change, negative = inhibition” value is inactive: -14%.

As to `CCOc1ccc(NC(=O)CCNS(=O)(=O)c2ccc3c(c2)CCCC(=O)N3)cc1`, the “activity change, negative = inhibition” value is inactive: -16.3%.

With `O=c1c(NCc2ccccc2Cl)nccn1-c1ccccc1`, the “activity change, negative = inhibition” value was inactive: 4.63%.

For the compound `CCOC(=O)CCC(=O)Nc1nnc2n1CCS2`, the “activity change, negative = inhibition” value was inactive: 9.72%.

As to `CC(=O)N1CCc2cc(S(=O)(=O)NC(CC(C)C)C(=O)NCc3ccccc3Cl)ccc21` (stereo not given), the “activity change, negative = inhibition” value was inactive: -13.8%.

In the case of `COc1ccc(CNC(=O)CCc2c(C)c3cc4c(C)c(C)oc4cc3oc2=O)cc1`, the “activity change, negative = inhibition” value is inactive: -2.8%.

As for `Cc1ccc(C(=O)Nc2nnc(S(=O)(=O)N3CCCCCC3)s2)cc1`, the “activity change, negative = inhibition” value is inactive: 39.6%.

As to `CC(=O)Nc1ccc(-c2nnc3n(Cc4ccc(C)cc4)c(=O)c4ccccc4n23)cc1`, the “activity change, negative = inhibition” value is inactive: -5.07%.

`CCCCNc1ccc(C(=O)OCCN(C)C)cc1`: the “activity change, negative = inhibition” value was inactive: 15.8%.

In the case of `CCC(=O)N1CCc2cc(Br)cc(S(=O)(=O)N3CCC(C(=O)Nc4ccccc4F)CC3)c21`, the “activity change, negative = inhibition” value is inactive: -3.12%.

Take `Cc1cc(C)cc(C(=O)n2nc(C)c(S(=O)(=O)N3CCCCCC3)c2C)c1`: the “activity change, negative = inhibition” value was inactive: -13.4%.

With `Cc1c(C(=O)N2CCN(c3ccc(F)cc3)CC2)sc2nc3n(c(=O)c12)CCC3`, the “activity change, negative = inhibition” value was inactive: 0.194%.

As for `O=C(Cn1ccn(-c2ccc(F)cc2)c(=O)c1=O)Nc1ccccc1C(F)(F)F`, the “activity change, negative = inhibition” value was inactive: -10.9%.

On to `CCCCc1nn2c(=O)cc(COC(=O)c3ccccc3NC(=O)c3cccs3)nc2s1`, for which the “activity change, negative = inhibition” value is inactive: -13.9%.

For the compound `CC(C)Cn1c(C2CC(=O)N(c3ccccc3Cl)C2)nc2ccccc21` (stereo not given), the “activity change, negative = inhibition” value was inactive: 1.84%.

In the case of `Cc1oc(-c2ccc(C(=O)NCCN(C)C)cc2)nc1CS(=O)(=O)c1ccccc1`, the activity change, negative = inhibition is inactive: -9.53% [at 11.5 µM].

As for `O=C(Cn1nc(-c2ccccc2)nc(Cc2ccccc2)c1=O)Nc1ccc(Cl)cc1`, the “activity change, negative = inhibition” value was inactive: -15.2%.

With `Cc1cccc(NC(=O)Cn2nnc(C(=O)NCc3ccco3)c2N)c1`, the “activity change, negative = inhibition” value was inactive: -15%.

Turning to `Cc1cccc(-n2c(N)cc(=O)nc2SCC(=O)Nc2ccc(F)cc2)c1C`, the activity change, negative = inhibition was inactive: -34.4% [at 11.5 µM].

As for `COc1ccc(Br)cc1C(=O)Nc1ccc(-c2nc3ncccc3o2)cc1C`, the “activity change, negative = inhibition” value is inactive: -8.52%.
